The values that follow come from the RNAGym collection of RNA variant scans (doi:10.1093/nar/gkz1192).

The source gives no read counts; variants with many changes may rest on few reads.

The chains are these.
B1: CPEB3 Ribozyme (parent)
chain: UAACAGGGGGCCACAGCAGAAGCGUUCACGUCGCAGCCCCUGUCAGAUUCUGGUGAAUCUGCGAAUUCUGCUGUAUAUCUC

In the series the parent is B1. Nature of the series: self-cleavage, relative activity (ratio to wild type); higher = more cleavage; in vitro, sequencing. The method in brief:
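Relative activity was defined as the cleaved/total read fraction for a variant divided by the same fraction for the unmutated ribozyme. CPEB3 self-cleaving ribozyme libraries were made by rounds of error-prone PCR, barcoded, and transcribed in vitro with T7 RNA polymerase for 5 hours at 37°C, and cleavage ran through transcription plus a 15 min DNase I step before EDTA. Illumina sequencing of template-switched reverse transcripts gave the reads, and DNA sequencing mapped the barcodes. Averages come from three batches, using variants with at least 5 reads.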
In the case of A15G A21G U72A, the self-cleavage was 0.2. With A15G A65G U67C the figure was 0.37. For the variant A15G A45U U58C U69C U78G U80G, the self-cleavage worked out at 0.09. On to A15G A35G U66C U74C, for which the self-cleavage was 0.56. Turning to A15G A45G A64U, the self-cleavage was 0.36. The same measure for A15G A28G A45U G53C G63A: 0.13; for A15G A35U G36A: 0.11; for A15G A35G A65G: 0.3.

Take A15G A21U U43A: the self-cleavage was determined as 0.42. Consider A15G A45G A56U U67C, for which the self-cleavage amounted to 0.13. For A15G C34A A65G, the self-cleavage worked out at 0.14. With A15G A21U A28U U78A the figure was 0.11; with A15G A21G G24U U25C C59G A65G, 0.05; with A15G A21G C29U A65G U72C A77C, 0.05.

Take A15G C29U A35C U76C: the self-cleavage was 0.12. With A15G A21G G63C U72A U80C the figure was 0.49. On to A15G C32U U41A U49A U66C U72A, for which the self-cleavage was 0.06. For A15G A21G U80C, the self-cleavage amounted to 0.69. With A15G A35G C39U U69C U72A, the self-cleavage turned out to be 0.16. Regarding A15G A47G U80C, the self-cleavage turned out to be 1.07. For the variant A15G C39A G73A A77G, the self-cleavage was 0.22. With A15G C17A A35U U43C the figure was 0.07; with A15G C34U U51A U69C U80C, 0.1. The same measure for A15G A77U U80A: 1.11; for A15G A77U U80G: 0.48; for A15G A45U U74C: 0.62. Take A15G A21G U49C U78C U80A: the self-cleavage is 0.17.

Consider A15G C23G U67G, for which the self-cleavage came to 0.17. With A15G A21G U26A A28G U43C A65G the figure was 0; with A15G C39A U66C, 0.18. With A15G A35G U76C, the self-cleavage came out at 0.64. With A15G A45U U69C U74C A75G, the self-cleavage came to 0.12. With A15G C38G U41C the figure was 0.15.

With A15G A35G C38G U43A, the self-cleavage was 0.53. Turning to A15G C29A U54C A56U A64G, the self-cleavage is 0.18. With A15G A21U U31C, the self-cleavage came out at 0.24.

As for A15G C39U A75C, the self-cleavage came to 0.61.

With A15G A21G U26C A65G, the self-cleavage amounted to 0.07. Turning to A15G A21G U78C, the self-cleavage came out at 0.57. On to A15G C23A C32U A45G, for which the self-cleavage was 0.09. In the case of A15G C32U U66C, the self-cleavage was 0.19.

For the variant A15G C39U U60C, the self-cleavage amounted to 0.46. Regarding A15G C38U U48A U74A, the self-cleavage amounted to 0.42.

Consider A15G G16C U31C U69G, for which the self-cleavage came to 0.2. Turning to A15G A21G A65G U69C, the self-cleavage stood at 0.17. With A15G A45G A64G U67C U74C the figure was 0.17. In the case of A15G A57C C59U C81U, the self-cleavage stood at 0.22. Regarding A15G C40A A75G, the self-cleavage worked out at 0.26.

As for A15G C44U U69C U74C, the self-cleavage stood at 0.09. Consider A15G A28U A56U U67A U74C, for which the self-cleavage amounted to 0.16.

Take A15G C23U U60C A75U: the self-cleavage is 0.07. The same measure for A15G A35U U48C U74C: 0.24; for A15G C38U U69C: 0.19; for A15G C38G U60A: 0.35. Regarding A15G A45G C62U U80C, the self-cleavage was determined as 0.28.

With A15G A47G A56U U67A A75U, the self-cleavage was found to be 0.17. Turning to A15G A21G U31A C38G U58C, the self-cleavage came out at 0.13.

Turning to A15G A21G C40U U54A, the self-cleavage amounted to 0.44. For A15G C32U A57U, the self-cleavage is 0.06.

With A15G A21U G24A U41A, the self-cleavage was 0.33.

A15G A28G A75G: the self-cleavage stood at 0.33.

With A15G A45U U60A U72C, the self-cleavage came out at 0.32. A15G A28G C44U U72C: the self-cleavage was 0.31.

On to A15G C23U G33A U43C C50A, for which the self-cleavage amounted to 0.1. On to A15G A21U G22A U31C U43C U66C A75G, for which the self-cleavage was found to be 0.07.

For A15G A21G U48C G55A, the self-cleavage was 0.32. As for A15G A35U A65G U66C A75G C81A, the self-cleavage stood at 0.07. As for A15G C32U U67C, the self-cleavage is 0.24. Consider A15G C38U C68U, for which the self-cleavage was found to be 0.49. For the variant A15G A57U A64G, the self-cleavage turned out to be 0.41.

With A15G C44U U51C U76C, the self-cleavage is 0.64. For A15G A28G A47G U49A A75G, the self-cleavage stood at 0.16.

For the variant A15G A57G U74G, the self-cleavage worked out at 1.25. A15G C40A U43C U49C G53A A65U U74C: the self-cleavage amounted to 0.15.

Consider A15G A65G U66C A75G C81A, for which the self-cleavage is 0.2. With A15G A35U U51A A64U U66C, the self-cleavage was determined as 0.13.

In the case of A15G A28G U72A A77U, the self-cleavage was 0.32.

For A15G C27G U51C, the self-cleavage was 0.21. For the variant A15G A28U A35U A64G, the self-cleavage turned out to be 0.13.

As for A15G A35U U66A U72C, the self-cleavage was 0.27. The same measure for A15G C38U U49C U60C U72A U80A: 0.06. Consider A15G A35G C50U, for which the self-cleavage stood at 0.17.

Take A15G A21G A57G U76C U80A: the self-cleavage was determined as 0.2. The same measure for A15G A65G U74A: 0.52.
